Experimental data as given in PubChem BioAssay (NCI).
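These data come from cells grown in 96-well plates and exposed to compound for 48 hours at five concentrations. GI50 marks 50% less growth. At the TGI there is no net growth.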

The compounds below were run on NCI-H322M lung (assay: DTP human tumour cell line panel, 48 h).

O=S(O)c1cc(Cl)cc(Cl)c1O and CCOC(=O)C1C(=O)c2ccccc2CN1Cc1ccccc1 (stereo not given) cannot be ordered by TGI: > 100 µM for the first, > 100 µM for the second.

First: CCSc1nc(N=Cc2cccs2)c2cn[nH]c2n1
Second: CCN(CC)Cc1cc(Nc2c3ccccc3nc3c2[nH]c2ccccc23)ccc1O
The TGI of the first is 6.9-fold higher: 28 µM for the first, 4.06 µM for the second.

Compared with COC(=O)[C@H](Cc1ccccc1)NC(=O)N1CCN(C(=O)N[C@@H](Cc2ccccc2)C(=O)OC)CCN(C(=O)N[C@@H](Cc2ccccc2)C(=O)OC)CC1, O=C([CH-]C(=O)c1ccccc1)c1ccccc1.O=C([CH-]C(=O)c1ccccc1)c1ccccc1.[Nd+3].[OH-].[OH3+] is lower in TGI: > 100 µM for the first, 56.1 µM for the second.

CC1OC(O[C@H]2CC[C@]3(C)[C@H]4CC=C5[C@@H]6[C@@H](C)[C@H](C)CC[C@]6(C(=O)O)CC[C@@]5(C(=O)O)[C@]4(C)CC[C@H]3C2(C)C)C(O)C(O)C1O (stereo not given in full) and C[C@]12CCC(=O)C(O)=C1CC[C@@H]1[C@@H]2CC[C@]2(C)C(=O)CC[C@@H]12 cannot be ordered by TGI: > 75 µM for the first, > 100 µM for the second.

[C-]#[O+].[C-]#[O+].[Ir].[O-]c1cccc2cccnc12 and COc1ccc2c3ccc4c(c3n(C)c2c1)C(=O)c1ccccc1C4=O cannot be ordered by TGI: > 100 µM for the first, > 100 µM for the second.

Going from COc1ccc(CN(CCc2c[nH]c3ccccc23)Cc2ccc(OC)cc2)cc1 to O=C(CCCn1ccnc1[N+](=O)[O-])NCCn1ccnc1, the TGI rises from 10.9 µM to > 100 µM.

Going from CCSc1nc(N=Cc2cccs2)c2cn[nH]c2n1 to [C-]#[O+].[C-]#[O+].[Ir].[O-]c1cccc2cccnc12, the GI50 rises from 6.24 µM to > 100 µM.

In the case of O=C([CH-]C(=O)c1ccccc1)c1ccccc1.O=C([CH-]C(=O)c1ccccc1)c1ccccc1.[Nd+3].[OH-].[OH3+], the GI50 is reported as 14.6 µM.
